In article PMC9841431 (Nucleic Acids Research, 2022):
In brackets after ≈: the same amount, converted by molar mass.

System: M. tuberculosis H37Rv
Assay: microbe, parasite or virus in culture
Type: cell-based
Conditions: Mycobacterium tuberculosis, read-out: MIC90 against replicating M. tuberculosis H37Rv and both sensitive and MDR clinical strains

O=[N+]([O-])c1cc2c(ccc3c4cc([N+](=O)[O-])oc4ccc23)o1 [nNF-C3, 2,7-Dinitronaphtho[2,1-b:6,5-b']difuran]
MIC90: 0.031 to 0.5 mg/L (≈ 0.104 to 1.68 µM)
